For one compound, Ki results are on record in article PMC8494430, “Development of a fluorogenic ADAMTS-7 substrate” (Journal of Enzyme Inhibition and Medicinal Chemistry, 2021).

This assay has as its target T1, ADAMTS-5 (Homo sapiens, UniProt Q9UNA0).
T1 construct: made in house
T1 sequence (Q9UNA0 262-930): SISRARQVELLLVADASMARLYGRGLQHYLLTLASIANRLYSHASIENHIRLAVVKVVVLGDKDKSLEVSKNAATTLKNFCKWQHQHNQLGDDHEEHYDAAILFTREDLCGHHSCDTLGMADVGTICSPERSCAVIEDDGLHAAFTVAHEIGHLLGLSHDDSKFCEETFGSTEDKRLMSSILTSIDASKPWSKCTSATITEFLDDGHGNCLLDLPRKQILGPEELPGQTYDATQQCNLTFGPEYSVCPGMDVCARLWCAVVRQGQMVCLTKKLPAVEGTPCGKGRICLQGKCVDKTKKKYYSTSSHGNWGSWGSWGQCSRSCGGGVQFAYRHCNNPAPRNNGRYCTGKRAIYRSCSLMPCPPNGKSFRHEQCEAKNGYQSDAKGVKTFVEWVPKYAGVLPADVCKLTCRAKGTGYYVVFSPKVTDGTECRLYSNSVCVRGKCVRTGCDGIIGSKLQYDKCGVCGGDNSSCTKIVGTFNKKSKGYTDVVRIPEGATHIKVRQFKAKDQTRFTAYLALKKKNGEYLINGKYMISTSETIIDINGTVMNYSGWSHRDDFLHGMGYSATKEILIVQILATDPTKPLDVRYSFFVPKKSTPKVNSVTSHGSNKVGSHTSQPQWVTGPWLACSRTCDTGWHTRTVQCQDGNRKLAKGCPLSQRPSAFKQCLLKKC
Briefly: ADAMTS-5 FRET peptide inhibition assay. The format is biochemical. Particulars: Cheng-Prusoff, read-out: Ki app ADAMTS-5.

For `O=C(NCCC[C@@H](NS(=O)(=O)c1ccc(OCc2ccc(F)cc2Cl)cc1)C(=O)NO)c1ccccc1` [EDV33], the Ki was determined as 6.5 ± 0.1 nM.
